# Several values for one entry are separate records, joined by “and”; a condition that tells them apart may be missing. Identical values can stand only once. The whole screen tested about 360,000 compounds, of which about 740 (0.21%) were called active. Inconclusive results, whose numbers are uncertain, are shown with a selection of clear calls. Calls follow the shape of the dose curve; as a rule, active = well fitted inhibition curve with a large enough effect; inconclusive = small, poorly fitted or top-dose-only effect; inactive = no such curve, though single readings can be large or run the other way. Where the call is inconclusive, the potency comes from a doubtful curve fit.
# System: Plasmodium falciparum AMA1 (3D7) - RON2 peptide interaction
# Experiment: qHTS for Inhibitors of AMA1-RON; Towards Development of Antimalarial Drug Lead: Primary Screen; also: nearly all actives have a fitted effect of over 45% in size;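 as to activity change, negative = inhibition: 0% = vehicle wells and -100% = peptide control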
# Conditions: AlphaScreen AMA1-biotinylated RON2 peptide binding; activity change, negative = inhibition: at 58.2 µM (top of the series) unless noted
# Procedure, shortened: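 AMA1 (3D7) with his tag at 25 nM final met compounds first, then biotinylated RON2 peptide at 25 nM; detection used donor plus acceptor beads, 10 µg/mL apiece, read by AlphaScreen after 30 min at room temperature.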
# Potency is read from the fitted curve at half-maximal effect.
Structure (SMILES),Potency,"activity change, negative = inhibition"
Cc1ccc(NC(=O)CCCc2ccccc2)c([N+](=O)[O-])c1,"inconclusive: 25.1 µM [inhibitor, partial curve]",–
CCN1CC2([N+](=O)[O-])CC=C(Cl)C([N+](=O)[O-])(C1)C2 (stereo not drawn),"inconclusive: 0.355 µM [inhibitor, full curve, poor fit]",–
Cc1nn(-c2cccc([N+](=O)[O-])c2)c(N)c1-c1ccccc1,–,inactive: 2.43%
CCN(CC(=O)Nc1ccc(NC(C)=O)cc1)C(=O)c1ccccc1CCc1ccccc1,"inconclusive: 39.8 µM [inhibitor, single point]",–
O=S(=O)(N/N=C\c1cccn1-c1ccccc1)c1ccc2ccccc2c1,"inconclusive: 39.8 µM [inhibitor, single point]",–
C[C@@H](c1ccccc1)N1C[C@H](COCc2ccccc2)Oc2cc(N3CC[C@@H](N(C)C)C3)ccc2S1(=O)=O,"inconclusive: 15.8 µM [inhibitor, partial curve]",–
COc1cc(OC)c(CN2CCC(CO)(CCOc3ccccc3)CC2)c(OC)c1,–,inactive: -11.9%
CCc1cccc(N=c2c([N+](=O)[O-])nn(-c3ccc(Cl)cc3)n2O)c1,"inconclusive: 26.7 µM [inhibitor, partial curve]",–
Cc1cccc(C(=O)NNC(=O)C(=O)NC(C)(C)C)c1,–,inactive: 16.2%
CC(=O)Nc1ccccc1C(=O)C(=O)Nc1ccc(Cl)cc1,–,inactive: 1.64%
CC(C)(C)C(=O)Nc1ccc(-c2cnco2)cc1,–,inactive: 11.6%
COc1ccccc1CNc1ncc(-c2ccc(F)cc2)n1C,"inconclusive: 31.6 µM [inhibitor, partial curve]",–
C=CCc1ccccc1OCC(O)CN1CCN(CCN2C(=O)c3cccc4cccc(c34)C2=O)CC1 (stereo not drawn),"inconclusive: 20 µM [inhibitor, partial curve]",–
CNC(=O)c1c(NC(=O)c2cccc(C)c2)sc2c1CCC2,–,inactive: -0.927%
Cc1cc(C)n(C(=O)c2cc3sccc3[nH]2)n1,–,inactive: 4.74%
Cc1c(NS(=O)(=O)c2ccc(Cl)c(C(=O)OC(C)C(=O)NCc3ccco3)c2)c(=O)n(-c2ccccc2)n1C (stereo not drawn),"inconclusive: 39.8 µM [inhibitor, single point]",–
COc1ccccc1C(CNC(=O)c1oc2ccccc2c1C)N1CCCC1 (stereo not drawn),–,inactive: -1.14%
Cc1ccc(NCC(=O)N/N=C/c2cccc(Oc3ccccc3)c2)cc1,"inconclusive: 39.8 µM [inhibitor, partial curve]",–
COc1cccc(-c2nc(CS(=O)CC(=O)NCCc3ccccc3)c(C)o2)c1 (stereo not drawn),–,inactive: 21.8%
CN(C)c1ccc(CN(C(=O)COc2ccccc2)C2CCS(=O)(=O)C2)cc1 (stereo not drawn),"inconclusive: 0.631 µM [inhibitor, full curve, poor fit]",–
CCC(=C/c1sc2ccc3ccccc3c2[n+]1C)/C=C1\Sc2ccc3ccccc3c2N1C,active: 35.5 µM,–
CN(C)c1ccc([C@@H]2[C@@H]([N+](=O)[O-])[C@H]3C=Cc4ccccc4N3[C@H]2C(=O)c2ccc(Cl)cc2)cc1,"inconclusive: 35.5 µM [inhibitor, single point]",–
COC(=O)c1ccc(OCC(=O)c2cccc(OC)c2)cc1,–,inactive: 20.8%
CC(C)Cn1c(Cc2ccccc2)n[nH]c1=S,–,inactive: 13.1%
Oc1ccccc1/C=N/N1CCCCC1,"inconclusive: 15.8 µM [inhibitor, partial curve]",–

Structure (SMILES),Potency,"activity change, negative = inhibition"
C(=N\Nc1ccc2ccccc2n1)/c1ccc2c(c1)OCCO2,–,inactive: 56.9%
Clc1ccc(CSc2ccc(-c3ccccn3)nn2)cc1,–,inactive: -10.4%
CCS(=O)(=O)N1CCC(C(=O)NCc2cc(OC)ccc2OC)CC1,"inconclusive: 26.7 µM [inhibitor, single point]",–
Cc1ccc(CN2CCN(c3ccccn3)CC2)s1,"inconclusive: 18.9 µM [inhibitor, partial curve]",–
CCOC(=O)/C(=N\Nc1ccc(Br)cc1)N1CCN(c2ccccc2OC)CC1,"inconclusive: 22.4 µM [inhibitor, partial curve]",–
Cc1ccc(OCC(=O)N2CCN(C3CCC(c4ccccc4)CC3)CC2)cc1 (stereo not drawn),"inconclusive: 15.8 µM [inhibitor, partial curve]",–
CCN(CC)S(=O)(=O)c1cc(NC(=O)C(C)N2CC=C(c3ccccc3)CC2)ccc1C (stereo not drawn),–,inactive: 5.21% [at 2.32 µM]
CC(=O)Nc1cccc(NC(=O)CSc2ccc(-c3ccccn3)nn2)c1,"inconclusive: 7.08 µM [inhibitor, partial curve]",–
CCOCCCNC(=O)c1cn(CC)c2ccc(S(=O)(=O)N(C)C3CCCCC3)cc2c1=O,–,inactive: -9.57%
COC(=O)[C@]12CCCCC=C1N(Cc1ccccc1)C(=O)[C@H](CC(=O)N1CCCCC1)C2,–,inactive: -1.74%
CSc1ccc(CN2CCN(Cc3ccc([N+](=O)[O-])cc3)CC2)cc1,"inconclusive: 14.1 µM [inhibitor, partial curve]",–
C=CCNCc1cccn1-c1ccccc1,"inconclusive: 29.9 µM [inhibitor, partial curve]",–
CCOC(=O)C(C)C1(O)c2ccccc2-c2ncccc21 (stereo not drawn),–,inactive: 11.4%
CC(C)Cc1nnc(NC(=O)CCC(=O)N2CCN(c3ccccn3)CC2)s1,–,inactive: 0.988%
CCc1ccc(NC(=O)c2cnc(N3CCN(c4ccccn4)CC3)c3ccccc23)cc1,"inconclusive: 10 µM [inhibitor, partial curve]",–
COc1cc(OC)cc(C(=O)N2CCN(C(=O)c3ccc(-c4ccccc4)cc3)CC2)c1,"inconclusive: 1.26 µM [inhibitor, full curve, poor fit]",–
NS(=O)(=O)c1ccc(CNC(=S)Nc2ccc(F)c(Cl)c2)cc1,–,inactive: 0.217%
CCN(CC)S(=O)(=O)c1ccc(C(=O)NCc2ccc3c(c2)cc(C)n3C)cc1,"inconclusive: 39.8 µM [inhibitor, single point]",–
Cc1ccc(-c2nc(CSCC(=O)N3CCN(C(=O)c4ccco4)CC3)c(C)o2)cc1,–,inactive: 3.34%
O=C(NCC(=O)N1CCCCC1)c1ccc(Cl)cc1Cl,–,inactive: 13.6%
CCOCCCNC1=C(Cl)C(=O)c2ccccc2C1=O,"inconclusive: 25.1 µM [inhibitor, single point]",–
CC(=O)c1cnc2c(-c3ccccc3)cnn2c1C,–,inactive: 6.12%
Clc1cccc(CN2CCC3CC2c2cc(N4CCCCC4)ccc23)c1 (stereo not drawn),"inconclusive: 15.8 µM [inhibitor, partial curve]",–
CN(CC(=O)Nc1ccccc1C(F)(F)F)C(=O)c1cccc(-n2cccc2)c1,"inconclusive: 0.708 µM [inhibitor, full curve, poor fit]",–
CCOC(=O)c1c(C2CC2)csc1NC(=O)CSCc1c(C)noc1C,–,inconclusive: -30.7% [inhibitor]

Structure (SMILES),Potency,"activity change, negative = inhibition"
CC(=O)c1ccc(N=Nc2ccc(N)cc2)cc1,"inconclusive: 17.8 µM [inhibitor, single point]",–
C=CCNC(=S)/C(=C(/[O-])c1ccccc1Br)[n+]1ccccc1,–,inactive: 19.5%
CCN1CCN(c2ncc(C(=O)Nc3cc(Cl)ccc3OC)c3ccccc23)CC1,"inconclusive: 10 µM [inhibitor, partial curve, poor fit]",–
C#Cc1cccc(NC(=O)c2ccc(Cl)cc2Cl)c1,–,inactive: 0.743%
Nc1ccc2cc(Br)ccc2c1,"inconclusive: 17.8 µM [inhibitor, partial curve]",–
CSc1nc2ccc(NS(=O)(=O)c3ccc(Cl)s3)cc2s1,–,inactive: -0.566%
O=c1c2c(-c3ccc(Cl)cc3)csc2ncn1/N=C/c1cccc([N+](=O)[O-])c1O,"inconclusive: 28.2 µM [inhibitor, single point]",–
CN(C)CCOCCOc1ccccc1-c1ccccc1,"inconclusive: 29.9 µM [inhibitor, single point]",–
Cc1ccc2c(c1)C1CN(C)CCC1N2S(=O)(=O)c1cccc(C(F)(F)F)c1 (stereo not drawn),–,inactive: -9.33%
O=C(Nc1sc2c(c1C(=O)c1ccc(Cl)cc1)CCCC2)c1cccnc1,"inconclusive: 16.8 µM [inhibitor, partial curve]",–
C(=NN1CCCCCC1)c1ccc2c(c1)OCO2,"inconclusive: 15.8 µM [inhibitor, single point]",–
COc1cc(CNc2ncc(-c3ccc(Br)cc3)n2C)cc(OC)c1O,–,inactive: -19.4%
Cc1cccc(OCCCC(=O)Nc2ccc(N(C)C)cc2)c1,"inconclusive: 15.8 µM [inhibitor, partial curve]",–
Cc1csc(Nc2ccccc2)[n+]1-c1ccccc1,"inconclusive: 39.8 µM [inhibitor, partial curve]",–
COc1ccc(CC2(C)OC(c3ccc([N+](=O)[O-])cc3)=NN2C(C)=O)cc1 (stereo not drawn),"inconclusive: 31.6 µM [inhibitor, partial curve]",–
CCOc1ccc(C(=O)c2ccc([N+](=O)[O-])cc2Cl)cc1,"inconclusive: 25.1 µM [inhibitor, partial curve]",–
COc1ccc(CNc2ccc(Cl)cc2)cc1Cn1ccnc1,"inconclusive: 39.8 µM [inhibitor, single point]",–
Cc1ccccc1C(=O)NCC(=O)Nc1ccc(C)c(S(=O)(=O)N2CCCCCC2)c1,–,inactive: 19.9%
CCOc1cc(/C=C/c2ccc3cccc([N+](=O)[O-])c3n2)ccc1O,"inconclusive: 39.8 µM [inhibitor, single point]",–
COc1ccccc1OCCN1C(=O)S/C(=C\c2ccco2)C1=O,"inconclusive: 31.6 µM [inhibitor, partial curve]",–
COCCCn1cnnc1SC(C)C(=O)Nc1ccc(S(=O)(=O)N2CCOCC2)cc1 (stereo not drawn),–,inactive: 10.5%
c1ccc(CN2CCN(c3nc(-c4ccccc4)nc4ccccc34)CC2)cc1,"inconclusive: 15.8 µM [inhibitor, single point]",–
CCN1CCN(Cc2ccc(NC(=O)c3ccc(C)c(NC(=O)C(=O)c4c[nH]c5ccccc45)c3)cc2C(F)(F)F)CC1,"inconclusive: 31.6 µM [inhibitor, single point] and inconclusive: 20 µM [inhibitor, partial curve]",–

# From PubChem BioAssay AID720542 (National Center for Advancing Translational Sciences (NCATS), 2013)
